Laboratory results taken from the supplement of paper PMC12217912.
Some of the results follow. The full chains were built here from the parent and the listed change. Values near 0.05 are background.

B1: TEV protease; numbered along this chain (parent)
chain: MGESLFKGPRDYNPISSSICHLTNESDGHTTSLYGIGFGPFIITNKHLFRRNNGTLVVQSLHGVFKVKDTTTLQQHLVDGRDMIIIRMPKDFPPFPQKLKFREPQREERICLVTTNFQTKSMSSMVSDTSCTFPSGDGIFWKHWIQTKDGQCGSPLVSTRDGFIVGIHSASNFTNTNNYFTSVPKNFMELLTNQEAQQWVSGWRLNADSVLWGGHKVFMVKPEEPFQPVKEATQL

Variants of: B1
Assay: raw area under fraction-flipped curve 0-4 h after induction (AUC4h, not background-subtracted), DNA-recorder readout of cleavage of the substrate (dimensionless); higher = more cleavage of the substrate by the protease variant
Details: temperature: 34 °C; time window: 0-4 h after rhamnose induction
Protocol: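 In vivo DNA recorder in E. coli TOP10(DE3) ΔrhaA at 34 °C. Each TEVp single-site mutant (parent TEVp 0) is paired with a single-site variant of the 7-mer TEVs (canonical ENLYFQ|S). The substrate sits between flexible linkers in a Bxb1-sfGFP-TEVs-SsrA fusion, so cleavage stabilises Bxb1 and speeds flipping of a recombination array, read by NGS. The value is the raw area under the fraction-flipped curve over 0-4 h after rhamnose induction (AUC4h), with ≥20 reads per time point. It is not background-subtracted; inactive controls average about 0.047.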
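Further: Bxb1 expression induced with 0.2% (w/v) L-rhamnose at OD600 near 0.5, cultures sampled hourly, flipped fraction per protease–substrate barcode pair counted by paired-end Illumina sequencing.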

Row | Variant | area with substrate ENLYDQS | area with substrate ENLYEQS | area with substrate ENLYGQS | area with substrate ENLYHQS | area with substrate ENLYKQS | area with substrate ENLYMQS | area with substrate ENLYNQS | area with substrate ENLYPQS | area with substrate ENLYQQS | area with substrate ENLYRQS | area with substrate ENLYSQS | area with substrate ENLYVQS | area with substrate ENLYWQS | area with substrate ENLYYQS | area with substrate ENLYIQS | area with substrate ENLYTQS | area with substrate ENLYLQS
1 | MGESLFKGPRDYNPISSSICHLTNESDGHTTSLYGIGFGPFIITNKHLFRRNNGTLVVQSLHGVFKVKDTTTLQQHLVDGRDMIIIRMPKDFPPFPQKLKFREPQREERICLVTTNFQTKSMSSMVSDTSCTFPSGDGIFWKHWIQTKDGQCGSPLVSTRDGFIVGIHSASNFTNTNNRFTSVPKNFMELLTNQEAQQWVSGWRLNADSVLWGGHKVFMVKPEEPFQPVKEATQL [Y179R] | 0.0587 | 0.0525 | 0.073 | 0.0385 | 0.0516 | 0.0567 | 0.0536 | 0.0644 | 0.0597 | 0.0634 | 0.0481 | 0.0495 | 0.0673 | 0.0299 | – | – | –
2 | MGESLFKGPRDYNPISSSICHLTNESDGHTTSLYGIGFGPFIITNKHLFRRNNGTLVVQSLHGVFKVKDTTTLQQHLVMGRDMIIIRMPKDFPPFPQKLKFREPQREERICLVTTNFQTKSMSSMVSDTSCTFPSGDGIFWKHWIQTKDGQCGSPLVSTRDGFIVGIHSASNFTNTNNYFTSVPKNFMELLTNQEAQQWVSGWRLNADSVLWGGHKVFMVKPEEPFQPVKEATQL [D79M] | 0.0619 | 0.0424 | 0.0663 | 0.0662 | 0.0412 | 0.0795 | 0.0611 | 0.0602 | – | 0.0628 | 0.0608 | 0.0997 | – | 0.0575 | 0.13 | 0.089 | –
3 | MGESLFKGPRDYNPISSSICHLTNESDGHTTSLYGIGFGPFIITNKHLFRRNNGTLVVQSLHGVFKVKDTTTLQQHLVDGRDMIIIRMPKDFPPFPQKLKFREPQREERICLVTTNFQTKSMSSMVSDTECTFPSGDGIFWKHWIQTKDGQCGSPLVSTRDGFIVGIHSASNFTNTNNYFTSVPKNFMELLTNQEAQQWVSGWRLNADSVLWGGHKVFMVKPEEPFQPVKEATQL [S130E] | 0.0448 | 0.0826 | – | – | 0.0572 | – | 0.0701 | 0.0681 | – | 0.0575 | 0.0823 | 0.117 | 0.0821 | 0.0608 | – | – | 0.0763
4 | MGESLFKGPRDYNPISSSICHLTNESDGHTTSLYGIGFGPFIITNKHLFRRNNGTLVVQSLHGVFKVKDTTTLQQHLVDGRDMIIIRMPKDFPPFPQKLKFREPQREERICLVTTNFQTKSMSSMVSDTSCTFPSGDGIFWKHWIQTKDGQCGSPLVSTRDGFIVGIHSASNFTNTNNYFTSVPKNFMELLTNQEAQQWVSGWRLNTDSVLWGGHKVFMVKPEEPFQPVKEATQL [A207T] | 0.0615 | 0.0617 | 0.0669 | 0.0733 | 0.0774 | 0.0986 | 0.0649 | 0.0963 | 0.0667 | 0.0493 | 0.0792 | – | 0.0746 | – | 0.124 | 0.0782 | –
5 | MGESLFKGPRDYNPISSSICHLTNESDGHTTSLYGIGFGPFIITNKHLFRRNNGTLVVQSLHGVFKVKDTTTLQQHLVDGRDMIIIRMPKDFPPFPQKLKFREPQREERICLVTTNFQTKSMSSMVSDTSMTFPSGDGIFWKHWIQTKDGQCGSPLVSTRDGFIVGIHSASNFTNTNNYFTSVPKNFMELLTNQEAQQWVSGWRLNADSVLWGGHKVFMVKPEEPFQPVKEATQL [C131M] | 0.0618 | 0.0697 | – | 0.0444 | 0.0713 | 0.0737 | 0.065 | – | – | 0.043 | – | – | 0.0697 | – | – | 0.0787 | –
6 | MGESLFKGPRDYNPISSSICHLTNESDGHTTSLYGIGFGPFIITNKHLFRRNNGTLVVQSLHGVFKVKDTTTLQQHLVDGRDMIIIRMPKDFPPFPQKLKFREPQREERICLVTTNFQTKSMSSMVSDTSCTFPSGDGIFWKHWIDTKDGQCGSPLVSTRDGFIVGIHSASNFTNTNNYFTSVPKNFMELLTNQEAQQWVSGWRLNADSVLWGGHKVFMVKPEEPFQPVKEATQL [Q146D] | 0.0465 | 0.0784 | 0.0536 | 0.0656 | 0.059 | – | 0.0707 | – | 0.0493 | 0.0496 | 0.0798 | 0.128 | 0.0881 | – | – | – | –
7 | MGESLFKGPRDYNPISSSICHLTNESDGHTTSLYGIGFGPFIITNKHLFRRNNGTLVVQSLHGVFKVKDTTTLQAHLVDGRDMIIIRMPKDFPPFPQKLKFREPQREERICLVTTNFQTKSMSSMVSDTSCTFPSGDGIFWKHWIQTKDGQCGSPLVSTRDGFIVGIHSASNFTNTNNYFTSVPKNFMELLTNQEAQQWVSGWRLNADSVLWGGHKVFMVKPEEPFQPVKEATQL [Q75A] | 0.056 | 0.0604 | – | 0.066 | – | 0.0641 | 0.0643 | – | 0.0673 | – | – | – | 0.0682 | 0.0672 | 0.0861 | – | –
8 | MGESLFKGPRDYNPISSSICHLTNESDGHTTSLYGIGFGPFIITNKHLFRRNNGTLVVQSLHGVFKVKDTTTLQQHLVDGRDMIIIRMPKDFPPFPQKLKFREPQREERICLVTTNFQTKSMSSMVSDTSCTFPSGDGIFWKHWIQTKDGQCGSPLVSTRDGFIVGIHSASNFTNTNNYFTSVPKNFMELLTNQEAQQWVSGWRLNADSVLWGGHKVFMVKPEEPFQPQKEATQL [V229Q] | 0.067 | 0.0612 | – | 0.0818 | 0.0287 | 0.0851 | 0.0771 | – | 0.0564 | 0.06 | – | 0.113 | 0.0884 | 0.067 | 0.0904 | – | 0.0553
9 | MGESLFKGPRDYNPISSSICHLENESDGHTTSLYGIGFGPFIITNKHLFRRNNGTLVVQSLHGVFKVKDTTTLQQHLVDGRDMIIIRMPKDFPPFPQKLKFREPQREERICLVTTNFQTKSMSSMVSDTSCTFPSGDGIFWKHWIQTKDGQCGSPLVSTRDGFIVGIHSASNFTNTNNYFTSVPKNFMELLTNQEAQQWVSGWRLNADSVLWGGHKVFMVKPEEPFQPVKEATQL [T23E] | 0.103 | 0.0666 | 0.0616 | 0.0649 | 0.0631 | 0.0678 | 0.0727 | 0.0862 | 0.0601 | – | 0.0767 | 0.0907 | 0.0811 | 0.0738 | 0.111 | 0.0843 | –
